Reference: article PMC4336329 (PLoS ONE, 2015)
Hit rate of the full screen: of about 310,000 compounds, about 2,200 (0.71%) showed an effect of 50% or more. Effects have a minus sign here. This is one part of the list.

molecular target: human ether-à-go-go-related gene (hERG) potassium channel (human, UniProt Q12809); assay: primary screen, population patch clamp on CHO cells stably expressing hERG
Sequence (Q12809 whole entry, looked up): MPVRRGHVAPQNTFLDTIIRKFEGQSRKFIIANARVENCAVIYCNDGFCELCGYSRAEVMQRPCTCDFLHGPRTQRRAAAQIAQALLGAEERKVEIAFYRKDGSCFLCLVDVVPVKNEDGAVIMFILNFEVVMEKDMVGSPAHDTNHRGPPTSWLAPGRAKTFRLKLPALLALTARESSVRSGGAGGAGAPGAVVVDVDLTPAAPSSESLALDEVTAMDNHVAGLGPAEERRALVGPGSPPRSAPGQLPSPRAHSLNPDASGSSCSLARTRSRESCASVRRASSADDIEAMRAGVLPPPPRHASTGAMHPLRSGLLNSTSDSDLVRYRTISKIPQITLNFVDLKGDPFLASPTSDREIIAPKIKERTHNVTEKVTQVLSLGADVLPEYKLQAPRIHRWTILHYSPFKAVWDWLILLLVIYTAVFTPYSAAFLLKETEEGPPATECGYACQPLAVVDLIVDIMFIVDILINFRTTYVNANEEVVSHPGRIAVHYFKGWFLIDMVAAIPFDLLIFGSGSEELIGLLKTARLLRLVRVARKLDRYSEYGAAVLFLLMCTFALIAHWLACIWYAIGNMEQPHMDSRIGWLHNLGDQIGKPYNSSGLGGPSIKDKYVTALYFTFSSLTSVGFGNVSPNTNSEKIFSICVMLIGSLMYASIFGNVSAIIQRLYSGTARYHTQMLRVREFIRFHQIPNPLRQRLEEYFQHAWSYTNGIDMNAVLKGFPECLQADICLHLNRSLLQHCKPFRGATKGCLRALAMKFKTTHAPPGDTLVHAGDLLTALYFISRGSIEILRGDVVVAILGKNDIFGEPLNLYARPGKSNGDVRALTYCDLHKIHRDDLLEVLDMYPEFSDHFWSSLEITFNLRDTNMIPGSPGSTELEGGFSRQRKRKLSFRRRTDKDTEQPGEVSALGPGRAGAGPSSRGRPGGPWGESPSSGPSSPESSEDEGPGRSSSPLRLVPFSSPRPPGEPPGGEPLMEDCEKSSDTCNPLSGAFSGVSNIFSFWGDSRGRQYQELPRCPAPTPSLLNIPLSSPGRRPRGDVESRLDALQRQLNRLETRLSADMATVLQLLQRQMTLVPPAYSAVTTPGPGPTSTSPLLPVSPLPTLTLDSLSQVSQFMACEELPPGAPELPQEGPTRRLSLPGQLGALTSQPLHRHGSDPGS

| SMILES | hERG current change (%, negative = inhibition) at 1uM [%] |
| --- | --- |
| COc1ccc(/C=N\NC(=O)COc2ccccc2)c(C(=O)O)c1OC | 13.2 |
| C=CCNC(=O)c1onc(CSc2ccc(F)cc2)c1C(=O)O | 10.3 |
| Cc1ccc(S(=O)(=O)N2CCC(C(=O)Nc3nnc(C)s3)CC2)cc1 | 9.1 |
| Cc1cccc(-c2ocnc2C(=O)Nc2ccccc2C(=O)N2CCCC2)c1 | 10.2 |
| Cn1c(SCC(=O)N2CCN(c3ccccc3)CC2)nnc1-c1ccco1 | 4.22 |
| COc1cc(NC(=O)CCn2c(=O)[nH]c3ccsc3c2=O)cc(OC)c1 | 0.0578 |
| Cc1ccc(F)cc1NC(=O)CCOc1ccccc1 | 6.03 |
| Cc1ccc(NC(=O)C2CCC(CNC(=O)[C@@H]3Cc4ccccc4CN3)CC2)c(C)c1 (stereo partly drawn) | 18.2 |
| O=C(Nc1cc(Cl)cc(Cl)c1)C(NCCO)c1ccccc1 (stereo not drawn) | -0.358 |
| COc1ccc([N+](=O)[O-])cc1N(CC(O)CN1C(=O)NC(C)(C)C1=O)S(=O)(=O)c1ccccc1 (stereo not drawn) | 13.7 |
| Cc1cc(SCC(=O)NCC(c2cccs2)N2CCOCC2)c(C)cc1Br (stereo not drawn) | 3.5 |
| COc1ccccc1CNC(=O)C1CCN(S(=O)(=O)c2ccc3c(c2)OCCCO3)CC1 | -1.02 |
| O=C(Nc1ccc2c(c1)OCO2)c1noc2c1CCCC2 | 9.29 |
| N#C/C(=C\c1cn(CCOc2ccccc2F)c2ccccc12)C(=O)NCc1cccs1 | 6.48 |
| CS(=O)(=O)NCc1ccccc1Br | 14.5 |
| CCn1c(SCC(=O)N2CCC(C(N)=O)(N3CCCCC3)CC2)nnc1-c1ccccc1 | 14.7 |
| CC1=N/C(=C\c2ccc([N+](=O)[O-])cc2)C(=O)N1c1ccc(Cl)cc1 | 7.82 |
| O=C(CCS(=O)(=O)c1ccccc1)Nc1ccc(-c2nc3ccccc3s2)cc1 | 4.39 |
| COC(=O)[C@@H]1C[C@H]2CC[C@H](O)C[C@H]2N1Cc1ccc(C(C)(C)C)cc1 | 13.4 |
| OC(COCc1ccco1)CN1CCN(C(c2ccccc2)c2ccccc2)CC1 (stereo not drawn) | -79.1 |
| OCCC1CN(Cc2c(F)cccc2Cl)CCN1C1CCCCC1 (stereo not drawn) | 0.337 |
| Cc1ccc(O)c(NC(=O)c2cc(-c3ccc(F)cc3)on2)c1 | 5.26 |

| SMILES | hERG current change (%, negative = inhibition) at 1uM [%] |
| --- | --- |
| O=C(O)CCCCCNC(=O)CSc1nnc(-c2ccco2)n1-c1ccccc1 | 17.7 |
| CNC(=O)[C@H]1O[C@@H](n2cnc3c(NCc4cccc(I)c4)ncnc32)[C@H](O)[C@@H]1O | 5.45 |
| CC(C)NC(=O)Nc1n[nH]c(Nc2ccc(Cl)cc2)n1 | 12.4 |
| CCc1cccc(C)c1NC(=O)CO/N=C(\C)c1cc2ccccc2o1 | 5.55 |
| COc1ccc(-c2nnc3ccc(SCC(=O)NCc4ccco4)nn23)cc1OC | -13.8 |
| CCCCCCN1C=CC(=C/C=C(\C#N)C(=O)OCC)C=C1 | 8.93 |
| Cn1cc(C(=O)N/N=C/c2ccc(Br)c([N+](=O)[O-])c2)c2ccccc21 | 9.53 |
| O=C(Cc1ccccc1)Nc1cccc(N2C(=O)C=CC2=O)c1 | 7.05 |
| Cc1cc(-c2ccccc2)[nH]c(=O)c1S(=O)(=O)c1ccccc1 | 6.8 |
| CN1CCN(CC(O)COc2ccc(C(=O)O)cc2)CC1 (stereo not drawn) | 15.9 |
| CCCNC(=S)N1CCN(c2nc(-c3cccc(OC)c3)cs2)CC1 | 10.4 |
| O=C(c1ccccc1)c1nccc2ccccc12 | 4.76 |
| COc1cc(OC)cc(OCC(O)Cn2ccnc2)c1 (stereo not drawn) | 13.8 |
| O=C(O)CCc1nn2cc(-c3ccccc3)nc2[nH]c1=O | 13.1 |
| Cn1c(SCC(=O)O)nnc1-c1cccc(NC(=O)c2cccc3ccccc23)c1 | 5.75 |
| O=C(c1cc(-c2cccs2)on1)N1CCN(c2ccc(F)cc2)CC1 | 1.64 |
| COc1ccc(CC(=O)N2N=C(C)CC2(O)c2cccnc2)cc1 (stereo not drawn) | 13.2 |
| Cc1ccc(Cl)cc1N(CC(=O)Nc1cccc(N(C)S(C)(=O)=O)c1)S(C)(=O)=O | -2.06 |
| COc1ccc(CNC(=O)CCc2c(C)nc3ncnn3c2C)cc1 | 3.51 |
| O=c1cc(N2CCc3ccccc32)[nH]c(=O)n1-c1ccc(Br)cc1 | 11.3 |
| CCCC[C@@H]1CN=C(N)N1CCCC | 17.5 |
| COc1ccc(OC)c(C(C(=O)NCc2ccco2)N(C(=O)Cn2nnc3ccccc32)C2CC2)c1 (stereo not drawn) | 11.7 |

| SMILES | hERG current change (%, negative = inhibition) at 1uM [%] |
| --- | --- |
| COc1ccc(N2CC(C(=O)Nc3ccc(S(=O)(=O)Nc4nccs4)cc3)CC2=O)c(OC)c1 (stereo not drawn) | 4.38 |
| COc1ccc(NC(=O)C(C)Sc2nnc3c4c(nc(-c5ccc(OC)cc5)n23)CC(C)(C)OC4)cc1 (stereo not drawn) | 12.8 |
| Cc1ccc(N(CCC#N)C(=O)COC(=O)c2cc(C)oc2C)cc1 | 11 |
| CCCCOC(=O)c1ccc(NC(c2ccc(C)cc2)P(=O)(OC)OC)cc1 (stereo not drawn) | 1.78 |
| CC(C(=O)NCCS(=O)(=O)c1ccc(Br)cc1)S(=O)(=O)c1ccc(Cl)cc1 (stereo not drawn) | -5.26 |
| CCOC(=O)c1csc(N)c1-c1ccc([N+](=O)[O-])cc1 | 13.7 |
| Cn1c(-c2cccc(Br)c2)cnc1NCc1cccnc1 | -18.6 |
| O=C(COC(=O)c1ccc2[nH]c3c(c2c1)CCCC3)Nc1ccccc1Cl | 12 |
| CCOC(=O)c1[nH]c(C)c(C(=O)NC2CCCCC2)c1C | 9.46 |
| Cn1c(=O)c2c(nc(NCc3ccccc3)n2CC(=O)NCc2ccccc2)n(C)c1=O | 10.4 |
| C[C@H]1CC[C@@]2(O[C@H](CCO)C[C@@H](O)[C@@H]2O)O1 | 9.11 |
| CC(C)(C)NC(=O)/C=C/c1ccc(C(F)(F)F)cc1 | 3.72 |
| CCN(CC)C(=O)CSc1nc(Cc2ccccc2)nc2ccccc12 | 17.4 |
| CCOC(=O)C1=C(C)NC(=O)NC1c1ccc(OCCO)c(OC)c1 (stereo not drawn) | 16.9 |
| CCCn1nc(C(=O)Nc2ccc3c(c2)OCO3)c2ccccc2c1=O | 3.16 |
| CCS(=O)(=O)N1CCN(Cc2ccccc2OC)CC1.O=C(O)C(=O)O | 11.4 |
| CC(C(=O)NCCC1=CCCCC1)N1C(=O)c2ccccc2C1=O (stereo not drawn) | 8.47 |
| CCOC(=O)/C(C#N)=C/c1c(Oc2cccc(C)c2)nc2c(C)cccn2c1=O | 16.1 |
| CCOC(=O)Cc1ccc(NC(=O)c2ccc([N+](=O)[O-])cc2)cc1 | 10.1 |
| Cc1cc(C)c(NC2=NCC(=O)N2C2CCCCC2)c(C)c1 | 8.28 |
| COc1ccc(/C=N\NC(=O)c2ccc(Cn3cc(Br)c([N+](=O)[O-])n3)o2)c(OC)c1C | 14.3 |
| CCN(CC)S(=O)(=O)c1ccc(N2CCOCC2)c(C(=O)O)c1 | 2.92 |

| SMILES | hERG current change (%, negative = inhibition) at 1uM [%] |
| --- | --- |
| CC(C)(C)c1ccc(OCCC(=O)NCCc2ccc(S(N)(=O)=O)cc2)cc1 | 5.64 |
| COc1ccccc1Nc1nn2c(=O)c3ccc(C(=O)N4CCCC(C)C4)cc3nc2s1 (stereo not drawn) | 9.93 |
| O=C(O)c1ccc(N2C(=O)c3cccnc3C2=O)cc1 | 15.5 |
| Cc1cccc(Cn2c(SCCN3CCOCC3)nc3c2c(=O)n(C)c(=O)n3C)c1 | 1.11 |
| Cc1ccccc1NC(=S)N(Cc1ccccn1)Cc1ccccc1Cl | 0.982 |
| CCOC(=O)C1CCN(Cc2cn[nH]c2-c2ccccc2)CC1.O=C(O)C(=O)O | 14.2 |
| CC1(C)C(=O)Nc2ccccc2N1C(=O)COc1cccnc1[N+](=O)[O-] | 6.9 |
| COCCn1c(=NC(=O)CSC(C)=O)sc2cc(OC)ccc21 | -16.2 |
| C(=C\c1ccccc1)/CSc1ccccn1 | 3 |
| C=CCOc1ccc(NC(=O)C(=O)NCCCn2ccnc2)cc1 | -6 |
| Cc1cc(C(=O)N2CCCC(N3CCN(c4ccc(F)cc4)CC3)C2)c(C)o1 (stereo not drawn) | -29.3 |
| O=c1[nH]c(SCc2c(Cl)cccc2Cl)nc2ccccc12 | -0.189 |
| CCc1ccc(C(=O)COC(=O)c2n[nH]c3ccccc23)cc1 | 6.32 |
| O=c1[nH]c(=S)n(CCC2=CCCCC2)c(O)c1/C=N/N1CCOCC1 | -0.025 |
| O=C(O)/C=C/C(=O)Nc1ccc(Cc2ccc(NC(=O)/C=C/C(=O)O)cc2)cc1 | 20.1 |
| Cc1cc(C)c(S(=O)(=O)N2CCCc3ccccc32)c(C)c1 | 10.3 |
| CCc1cc2c(s1)NC(=O)CN=C2c1cccs1 | -6.49 |
| CC1CCCC(NC(=O)CCC(=O)N2CCOc3ccccc32)C1C (stereo not drawn) | 14.3 |
| CN(Cc1ccon1)C(=O)CCc1nnc(CCCCc2ccccc2)o1 | 7.92 |
| O=C(CN1CCN(S(=O)(=O)c2ccc(Cl)c(Cl)c2)CC1)N1CCCCC1 | -17.6 |
| CC(C)NC(=O)N(Cc1ccc(Cl)cc1)Cc1cccs1 | 2.33 |
